Test results published in the supplement of paper PMC3334620.
In all, about 33,000 sequences were measured (“E-score (-0.5 to 0.5)”: median about -0.011, highest 2% from about 0.28 on). This is one part of the list.

molecular target: T1, Gcr1 (UniProt P07261); test: PBM E-score (8-mer binding enrichment) (E-score (-0.5 to 0.5)); higher = stronger / more preferred TF binding; most listed sequences are background and not binding sites; conditions: protein concentration: 100 nM; construct: GST-full length
T1 sequence: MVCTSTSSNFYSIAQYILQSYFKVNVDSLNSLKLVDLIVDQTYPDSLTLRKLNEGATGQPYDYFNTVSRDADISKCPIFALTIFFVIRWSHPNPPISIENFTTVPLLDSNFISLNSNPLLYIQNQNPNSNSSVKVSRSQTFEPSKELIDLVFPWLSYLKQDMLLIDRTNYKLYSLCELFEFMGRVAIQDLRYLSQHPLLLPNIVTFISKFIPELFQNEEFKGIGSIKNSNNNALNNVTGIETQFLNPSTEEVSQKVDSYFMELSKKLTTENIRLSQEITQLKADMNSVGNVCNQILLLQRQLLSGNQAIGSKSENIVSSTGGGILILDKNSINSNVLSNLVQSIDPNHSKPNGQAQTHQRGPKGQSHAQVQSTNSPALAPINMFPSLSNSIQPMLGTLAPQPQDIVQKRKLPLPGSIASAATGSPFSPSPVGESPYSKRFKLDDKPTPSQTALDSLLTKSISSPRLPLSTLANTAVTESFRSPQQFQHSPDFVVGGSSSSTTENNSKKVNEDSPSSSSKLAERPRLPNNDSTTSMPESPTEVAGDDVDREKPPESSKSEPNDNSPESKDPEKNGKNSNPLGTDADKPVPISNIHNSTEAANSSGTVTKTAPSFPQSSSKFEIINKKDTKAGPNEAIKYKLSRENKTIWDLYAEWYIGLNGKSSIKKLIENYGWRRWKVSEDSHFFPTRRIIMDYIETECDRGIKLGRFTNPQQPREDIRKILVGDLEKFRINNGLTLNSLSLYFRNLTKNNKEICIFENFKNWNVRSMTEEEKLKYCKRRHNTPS
Procedure: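 Universal 'all 10-mer' protein binding microarrays (Agilent AMADID 015681) probed with GST-tagged S. cerevisiae TFs (full-length or DBD) made by in vitro transcription/translation (PURExpress), about 100-200 nM. Bound TF was detected with fluorescent anti-GST. Each ungapped 8-mer (which stands for itself and its reverse complement) is scored by the PBM enrichment score (E-score), a modified Wilcoxon-Mann-Whitney statistic from -0.5 to +0.5, computed with the Universal PBM Analysis Suite. Scale: above 0.35 generally sequence-specific binding.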

Row | Sequence | PBM E-score
1 | CAAATCCC | -0.112
2 | CCTAAACG | 0.113
3 | GCTCCCTA | 0.104
4 | GCTCGGAA | 0.13
5 | GTAAAAAC | 0.02
6 | GCGCGAAA | 0.0513
7 | ACCGAACG | 0.0306
8 | AGGCTACG | -0.275
9 | AGTTTTAA | 0.0326
10 | CCCTAGAC | -0.126
11 | AGTCCCTG | -0.0505
12 | AATGTAGG | -0.0931
13 | CGCTGTTC | 0.0481
14 | CTGTTTGA | -0.0982
15 | GACTTCGC | 0.201
16 | AGCTGTGG | 0.177
17 | GTGACCGA | -0.0657
18 | GACCGACC | -0.215
19 | GGTAGACC | -0.317
20 | AGTACGTA | -0.076
21 | CAAAGTGG | 0.00098
22 | GTTCGTGA | 0.0206
23 | AGCGCCCT | 0.236
24 | AAGAGGCC | -0.0271
25 | CCGACTAC | -0.0185

Row | Sequence | PBM E-score
26 | ATCGACGA | -0.233
27 | CACCACTG | 0.167
28 | CTTGCGCC | -0.169
29 | CAGGTCCA | -0.019
30 | ACGAAGCG | 0.0293
31 | GCCATTCA | -0.0672
32 | AGCTGCGA | 0.244
33 | GCTGATGA | -0.0464
34 | ATTCTTTG | 0.127
35 | ATTAAGGA | 0.0697
36 | ATCCCCAC | 0.122
37 | ATGTCTTC | -0.0642
38 | CCAGGGAC | -0.161
39 | ACCCAAAC | 0.145
40 | CTAGTGAA | 0.0743
41 | AATCATAG | 0.00579
42 | ATATTGAA | 0.0925
43 | CAAACGAG | -0.112
44 | CAACAGCA | 0.077
45 | CAGCGGAG | -0.0562
46 | ACCTTCGC | -0.0588
47 | CTCTAATC | -0.0195
48 | CACGAGTC | -0.0225
49 | GACCGGAC | -0.183
50 | AAAGCCCG | -0.111

Row | Sequence | PBM E-score
51 | ACAGACCC | -0.11
52 | TACCTGAA | 0.0937
53 | AACAAGAA | 0.229
54 | AGTGGATG | 0.394
55 | AATTACCG | 0.19
56 | AACATTCG | -0.0406
57 | GTTCAGAA | 0.0385
58 | TCCGCGCA | -0.105
59 | AGATGGCA | 0.0969
60 | ACTCAGAT | 0.05
61 | ACGATTAA | 0.107
62 | ACCTGAGC | 0.183
63 | ACGGCCTA | -0.202
64 | AAAGGTGG | 0.0257
65 | CGGTGCCA | 0.00263
66 | CTGCGCGC | 0.173
67 | GTATTACA | 0.077
68 | AACTATCA | -0.0226
69 | ACCCGACT | 0.0284
70 | GCGAATCC | 0.235
71 | AAGCCGAG | -0.0118
72 | CGTACATA | -0.0914
73 | ACGAGAGG | -0.238
74 | TACTTCTA | 0.0389
75 | AATACAGA | -0.0124

Row | Sequence | PBM E-score
76 | GGCTGACA | -0.274
77 | CATTCGGC | 0.0681
78 | TCTATTCA | 0.0799
79 | AGCGGTCA | 0.00719
80 | AGCAAGAT | -0.00413
81 | AACGGGTC | -0.122
82 | CTCTTGAC | -0.178
83 | CTCCCTTC | -0.185
84 | GACGCGAC | 0.104
85 | GTTTTGTA | 0.0369
86 | GACTTGGC | -0.00593
87 | GAGCCTTA | -0.217
88 | ATGACAAG | -0.124
89 | CGTCGGCC | -0.282
90 | CCCTCGAC | -0.0804
91 | CGCGGGGA | 0.0382
92 | ACCCGTAA | -0.0844
93 | AATACTAT | -0.00997
94 | GCAAAACA | 0.038
95 | GTCATTCA | -0.187
96 | GTACGTAC | -0.16
97 | AGGGTGTC | -0.0464
98 | CAGGAGAG | -0.168
99 | AGAGCAAA | 0.108
100 | CCAAGAGG | 0.00028

Row | Sequence | PBM E-score
101 | AGAGATAC | 0.147
102 | ATCTATCA | -0.0466
103 | CTGCAACA | 0.13
104 | CCTGTGTA | 0.0704
105 | AAGATATA | 0.0504
106 | ATTATGGG | 0.115
107 | ACTTCTGC | 0.0872
108 | CATGACGC | -0.00593
109 | CCCCCTCG | -0.309
110 | GTCTGCTA | 0.0506
111 | ATAGAATA | 0.108
112 | AAGGAGGC | 0.0163
113 | CAAGACCA | -0.00065
114 | CGGCTCTA | 0.0415
115 | ATGTACCG | -0.0285
116 | AAGGAGTG | 0.143
117 | ACCAATAT | 0.0804
118 | CAGACTAA | -0.169
119 | AAGAGACG | -0.0377
120 | AGTACGCA | -0.0458
121 | CTTACCCC | -0.052
122 | ACTTGTTG | 0.137
123 | CTCAGAAA | -0.133
124 | AACCGTGA | -0.139
125 | ACACACGC | 0.121

Row | Sequence | PBM E-score
126 | CGCCAAGC | -0.00059
127 | ACCTCGCA | -0.0887
128 | AACAGCAA | 0.017
129 | CTCGGCGC | 0.159
130 | CACGGTGA | 0.00799
131 | GAGACCTC | -0.135
132 | CAGCATAG | -0.0201
133 | CAGAGTCG | 0.0294
134 | AGGTCTTA | -0.196
135 | ATGTAAAG | -0.0534
136 | CGCCATAG | -0.14
137 | ATAGCACC | 0.159
138 | CGGCCATA | -0.242
139 | ACGCAATG | -0.0922
140 | CTAGGCCC | 0.025
141 | CATAGCCA | -0.2
142 | AGTCGCTA | 0.0325
143 | GATTACAC | 0.0333
144 | ACCTTCAC | -0.187
145 | ATATTATC | 0.159
146 | GCAAGGGA | -0.144
147 | AGCGGGTG | 0.129
148 | ACGTCACC | -0.0216
149 | CGATAATC | 0.07
150 | ATGTCCAC | 0.0849

Row | Sequence | PBM E-score
151 | ATCCTATA | 0.237
152 | GACCGTAC | -0.315
153 | CACTGAAA | 0.138
154 | CAAGTCCC | -0.29
155 | GTGGGACA | -0.267
156 | ACGCGGGC | -0.00163
157 | AATACGCA | 0.18
158 | AGGTATTC | 0.0478
159 | ACACCAGG | -0.205
160 | CTCGCTCC | -0.0198
161 | AAATCAAC | 0.00896
162 | CGAGCCAA | -0.00353
163 | CCACGGAC | -0.14
164 | GTCGCCTA | 0.0571
165 | AGCGAGCA | -0.108
166 | CCTGAGAA | 0.0359
167 | TCAGTCGA | 0.0217
168 | AAGAAACG | -0.134
169 | CCCGTGTA | -0.0398
170 | CCTGCCTA | 0.00507
171 | AGTTGTTG | 0.0285
172 | CAGAGCGG | -0.00201
